Tested on: C. difficile hypervirulent strain R20291
Details: for Murine CDI prophylaxis at 50 mg/kg: 50 mg/kg daily oral gavage, 3 days, mice challenged with R20291 spores; for CDI signs in mice: hypervirulent C. difficile strain R20291
From the text: To test for murine C. difficile infection (CDI) protection, published procedures were followed (Howerton et al. (2013) Journal of Infectious Diseases 207(10): 1498-1504; Phan et al. (2022) Antimicrobial Agents and Chemotherapy 66(1): e01435-01421). Briefly, antibiotic-treated female mice were challenged by oral gavage with spores from C. difficile hypervirulent strain R20291 (Chen et al. (2008) Gastroenterology 135(6): 1984-1992). At this point, animals were divided randomly into groups (Table 1). Starting on the day of infection and continuing for the next two days, animals in group C were given daily doses of 50 mg/kg of an individual NHBS analog by oral gavage. Animals in group B were given vancomycin. Animals in group A were given excipient (Howerton et al. (2013) Journal of Infectious Diseases 207(10): 1498-1504; Howerton et al. (2018) Antimicrobial Agents and Chemotherapy 62(10): e02251-17). For up to 5 days following challenge, animals were scored for signs of CDI, using a published rubric (Howerton et al. (2013) Journal of Infectious Diseases 207(10): 1498-1504). Moribund or severely distressed animals were euthanized.

Row | SMILES | Murine CDI prophylaxis at 50 mg/kg | CDI signs in mice
1 | C[C@H](CCc1nc2ccccc2s1)[C@H]1CC[C@H]2[C@@H]3[C@H](O)C[C@@H]4C[C@H](O)CC[C@]4(C)[C@H]3C[C@H](O)[C@]12C [Compound 48] | Partial protection | significantly reduced sign severity
2 | C[C@H](CCc1ncc2ccccc2n1)[C@H]1CC[C@H]2[C@@H]3[C@H](O)C[C@@H]4C[C@H](O)CC[C@]4(C)[C@H]3C[C@H](O)[C@]12C [Compound 29] | Complete protection | prevented all CDI signs

— patent US12220421B2, “Inhibitors of C. difficile spore germination” (THE BOARDS OF REGENTS OF THE NEVADA SYSTEM OF HIGHER …, priority 2021, dated 2025)
